# Measurements published in PubChem BioAssay AID1476 (National Center for Advancing Translational Sciences (NCATS), 2009).
# The campaign covered roughly 200,000 compounds. About 4,500 (2.2%) were called active. Inconclusive means that the source gave no clear call. Such entries were picked first, then a sample of the others. Calls follow the shape of the dose curve; as a rule, active = well fitted inhibition curve with a large enough effect; inconclusive = small, poorly fitted or top-dose-only effect, or effect the other way; inactive = flat fitted curve, though single readings scatter. Potencies beside an inconclusive call are fits to weak or partial responses and may not hold up.
# Biological target: Cruzipain (Trypanosoma cruzi) (UniProt P25779)
# UniProt P25779, sequence (P25779 whole entry, looked up): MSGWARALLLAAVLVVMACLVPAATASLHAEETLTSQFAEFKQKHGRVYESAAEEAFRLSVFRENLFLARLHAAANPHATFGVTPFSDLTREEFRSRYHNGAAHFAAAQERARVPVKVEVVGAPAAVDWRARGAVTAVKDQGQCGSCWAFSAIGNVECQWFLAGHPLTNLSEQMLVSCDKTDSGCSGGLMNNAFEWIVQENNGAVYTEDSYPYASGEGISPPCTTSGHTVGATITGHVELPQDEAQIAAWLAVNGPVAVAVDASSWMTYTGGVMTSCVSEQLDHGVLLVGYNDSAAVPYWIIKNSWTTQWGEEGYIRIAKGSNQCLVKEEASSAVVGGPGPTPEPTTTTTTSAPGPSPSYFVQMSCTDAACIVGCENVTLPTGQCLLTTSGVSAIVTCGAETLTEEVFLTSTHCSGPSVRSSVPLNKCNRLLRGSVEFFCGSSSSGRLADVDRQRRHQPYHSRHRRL
# Test: qHTS Assay for Promiscuous and Specific Inhibitors of Cruzain (without detergent); also: nearly all actives have a fitted effect of over 40% in size;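 as to max response, negative = inhibition: plate controls were enzyme without inhibitor for no effect and buffer without enzyme for full effect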
# Details: purified cruzain, Z-FR-AMC fluorescence, no detergent
# Procedure, shortened: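 Detergent-free condition (0.00005% Triton X-100) in acetate buffer pH 5.5 with DTT. 1.5 nM enzyme and compound were pre-mixed 15 min, then 2 uM Z-FR-AMC substrate added; reaction progress from fluorescence change between first and third reads (60 s).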
# Potency is read from the fitted curve at half-maximal effect; tags tell the direction and shape of the fitted curve.
SMILES,Potency,"max response, negative = inhibition"
CC(C)c1ccccc1NC(=O)COc1ccc(C(=O)NCCc2ccccc2)cc1,"inconclusive: 39.8 µM [inhibitor, single point]",–
Cc1ccc(N2C(=O)N(CC(=O)NC(c3ccccc3)c3ccccc3)C(=O)C2C)cc1 (stereo unspecified),"inconclusive: 39.8 µM [inhibitor, single point]",–
COc1ccc(Cn2ccc3nc(C)c(C(=O)N4CCN(c5ccc(OC)cc5)CC4)cc3c2=O)cc1,"inconclusive: 39.8 µM [activator, single point]",–
CCOc1ccccc1NC(=O)Cn1nnc(C(=O)NCc2ccc(F)cc2)c1N,"inconclusive: 31.6 µM [inhibitor, single point]",–
Cc1cc(N2C(=O)CCC2=O)n(-c2ccccc2)n1,"inconclusive: 0.0398 µM [inhibitor, full curve, poor fit]",–
CCc1ccc(CNC(=O)c2cc3c(=O)n(Cc4cccs4)ccc3nc2C)cc1,"inconclusive: 31.6 µM [activator, single point]",–
CC(C)(Oc1ccc(Cl)cc1)C(=O)NCCN1C(=O)S/C(=C/c2cccnc2)C1=O,"inconclusive: 31.6 µM [activator, partial curve]",–
c1ccc(-c2nc(CSc3nnc(-c4cccs4)o3)cs2)cc1,"inconclusive: 39.8 µM [inhibitor, single point]",–
CC1CCn2c(nc3cc(C(=O)NCc4ccc(OC(C)C)cc4)ccc32)C1 (stereo unspecified),–,inactive: -4.92%
O=C(O/N=C\c1ccc(N2CCCCC2)c([N+](=O)[O-])c1)c1ccc(Cl)cc1Cl,"inconclusive: 39.8 µM [inhibitor, single point]",–
O=C(CSc1nc(N2CCCCC2)nc(N2CCCCC2)n1)c1ccccc1,"inconclusive: 39.8 µM [inhibitor, single point]",–
C=C1C2=CC(=O)OC(c3ccoc3)[C@]2(C)CCC1[C@]1(C)C=CC(=O)C(C)(C)C1CC(=O)OC (stereo partly specified),–,inactive: 0.576%
CCOc1cc(N2CCOCC2)c(OCC)cc1NC(=O)COc1ncnc2ccccc12,"inconclusive: 39.8 µM [activator, single point]",–
COc1cc(OC)c(NC(=O)c2ccc(-n3cnc4cccnc43)cc2)cc1Cl,–,inactive: -2.38%
CCOC(=O)c1c(C)[nH]c(C)c1C(=O)COC(=O)/C=C/c1cccc(Cl)c1,–,inactive: 19.5%
COc1cccc([C@@H]2Oc3ccc(Br)cc3C[C@H]2OC(=O)NCCc2ccc(OC)c(OC)c2)c1,–,inactive: -4.18%
CCOc1ccc(-c2cc(C(=O)NCCc3ccc(C)cc3)c3ccccc3n2)cc1,"inconclusive: 6.31 µM [activator, single point]",–
O=C1[C@@H]2Cc3c([nH]c4ccccc34)[C@@H](c3ccccc3)N2C(=O)[C@@H]2Cc3c([nH]c4ccccc34)[C@@H](c3ccccc3)N12,active: 10 µM,–
CCCCC1=NC2(CCCC2)C(=O)N1Cc1ccc(-c2ccccc2-c2nn[nH]n2)cc1,"inconclusive: 39.8 µM [activator, single point]",–
Nc1ccc2c(c1)N1CCN=C1S2,–,inactive: 9.88%
CCS(=O)(=O)c1ccc(-c2csc(-c3ccccc3Cl)n2)c(Cl)c1Cl,"inconclusive: 39.8 µM [inhibitor, single point]",–
O=C(O)c1cc(C(=O)O)nc(C(=O)O)c1,–,inactive: 5.12%

SMILES,Potency,"max response, negative = inhibition"
Cc1cc(C)c2c(NC(=O)c3ccccc3Cl)c(C(=O)NCc3ccc(Cl)cc3)sc2n1,–,inactive: -11%
CC(=O)c1cccc(NC(=O)Cn2ccn3nc(-c4ccccc4)cc3c2=O)c1,–,inactive: -0.588%
CC1=C(c2ccc(C(C)C)cc2)S(=O)(=O)N=C1N1CCC(C(=O)NCc2ccc(C)o2)CC1,–,inactive: 20.4%
Cc1cccc2nc(CSc3nc4ccc([N+](=O)[O-])cc4[nH]3)c(Br)n12,active: 3.16 µM,–
COc1ccc(/C=C2\N=C(C)N(c3ccc4ccccc4c3)C2=O)cc1OC,"inconclusive: 25.1 µM [activator, single point]",–
Cc1nc(NC(=O)CC(C)C)sc1-c1csc(Nc2ccc(Cl)cc2Cl)n1,active: 15.8 µM,–
O=[N+]([O-])c1ccc(N2CCN(S(=O)(=O)c3ccccc3)CC2)cc1NCc1cccnc1,"inconclusive: 25.1 µM [inhibitor, single point]",–
Cc1occc1C(=O)N=Nc1c(O)[nH]c2ccc(Br)cc12,active: 12.6 µM,–
CCN(C(=O)Cn1c(C(=O)OC)cc2sccc21)c1cccc(C)c1,–,inactive: -8.58%
Cc1cc(C)c[n+](CC(=O)c2ccc(-c3ccccc3)cc2)c1,–,inactive: -7.29%
Nc1nc2c(nc(Sc3ccc(Cl)cc3)n2C2OC(CO)C(O)C2O)c(=O)[nH]1 (stereo unspecified),–,inactive: 0.0676%
O=C(CCCCCn1c(=O)[nH]c2ccccc2c1=O)N1CCN(c2cccc(C(F)(F)F)c2)CC1,"inconclusive: 31.6 µM [activator, single point]",–
Cc1ccc(CNC(=O)CCCCCn2c(=O)c3sccc3n(CC(=O)N3CCCCC3C)c2=O)cc1 (stereo unspecified),–,inactive: 7.73%
CC1=C(C(=O)Nc2ccccc2Br)C2(CCC(C)CC2)OC1=O (stereo unspecified),–,inactive: -0.733%
Cc1ccc(-c2nc3sc(CCNC(=O)c4ccc(F)c(F)c4)c(C)n3n2)cc1,–,inactive: -7.52%
C[C@H]1CC[C@@]2(NC1)O[C@@H]1C[C@@H]3[C@@H]4CC=C5C[C@@H](O)CC[C@]5(C)[C@@H]4CC[C@]3(C)[C@H]1[C@@H]2C,–,inactive: -5.95%
O=c1c2ccccc2nc(SCc2ccc([N+](=O)[O-])cc2)n1CCCO,"inconclusive: 31.6 µM [activator, single point]",–
COC(=O)Cn1c(=NC(=O)c2ccc(Cl)s2)sc2cc(F)ccc21,active: 25.1 µM,–
Nc1ccc2nc(-c3ccc(N)c(Cl)c3)[nH]c2c1,"inconclusive: 25.1 µM [inhibitor, partial curve, poor fit]",–
CCOC(=O)N1CCN(Cc2nc3c(c(=O)n(C)c(=O)n3C)n2Cc2cc(C)ccc2C)CC1,"inconclusive: 31.6 µM [activator, single point]",–
COc1cccc(C(=O)COc2ccc3c(C)c(Cc4ccccc4)c(=O)oc3c2)c1,"inconclusive: 39.8 µM [inhibitor, single point]",–
CCOc1ccc2nc(NC3=NC(c4ccc(OC)cc4)CC(=O)N3)nc(C)c2c1 (stereo unspecified),"inconclusive: 39.8 µM [inhibitor, single point]",–

SMILES,Potency,"max response, negative = inhibition"
CC1=C(C(=O)Nc2ccccc2)C(c2ccc(Br)cc2)n2nc(CCCO)nc2N1 (stereo unspecified),–,inactive: 20.3%
O=C1Nc2ccccc2N(O)N1c1cc(-c2cccc(Cl)c2)no1,"inconclusive: 15.8 µM [inhibitor, partial curve]",–
CC(C)c1ccc(C2CC(=O)N3CN(C4CCCCC4)CSC3=C2C#N)cc1 (stereo unspecified),"inconclusive: 39.8 µM [activator, single point]",–
Cn1ccc2cc(S(=O)(=O)N3CCCC(C(=O)NCc4ccccc4F)C3)ccc21 (stereo unspecified),"inconclusive: 39.8 µM [inhibitor, single point]",–
COc1cccc(-n2c(SCC(=O)Nc3ccc4c(c3)OCO4)nc3c([nH]c4ccccc43)c2=O)c1,active: 15.8 µM,–
CCOc1ccccc1-c1cc(-c2n[nH]c(=S)n2CC)c2ccccc2n1,"inconclusive: 39.8 µM [inhibitor, single point]",–
Cc1ccc(S(=O)(=O)/N=C2/C=C(Sc3ncn[nH]3)C(=O)c3ccccc32)cc1,"inconclusive: 31.6 µM [inhibitor, single point]",–
N#Cc1nc(/C=C/c2ccc(F)cc2)oc1N1CCCCCC1,–,inactive: 29%
COC(=O)c1ccc(Cn2cnc3c(cnn3-c3ccc(C)c(C)c3)c2=O)o1,"inconclusive: 39.8 µM [activator, single point]",–
COC1=CC(=O)C[C@@H](C)[C@]12Oc1c(Cl)c(OC)cc(OC)c1C2=O,"inconclusive: 31.6 µM [activator, single point]",–
COc1ccc(/C=C/c2cc(OC)c(OC)cc2CC[N+](C)(C)C)cc1,"inconclusive: 39.8 µM [inhibitor, single point]",–
O=C(Nc1ccc(NC(=O)c2cccs2)cc1)c1ccc(Br)o1,active: 25.1 µM,–
Cc1ccc(C(=O)c2c(NC(=O)c3ccccc3)sc(C)c2C)cc1,–,inactive: -26.9%
O=S(=O)(c1cccc(Cl)c1)n1c(/C=C/c2ccccc2Cl)nc2ccccc21,active: 7.94 µM,–
N#Cc1ccccc1OC[C@H](O)CNCCNC(=O)Nc1ccccc1,–,inactive: -6.18%
COC(=O)c1ccccc1NC(=O)c1ccc2c(c1)CCN2S(=O)(=O)c1ccc(Cl)cc1,–,inactive: 11%
O=C(NCc1cn(-c2ccccc2)nc1-c1ccc(F)cc1)c1cccc([N+](=O)[O-])c1,"inconclusive: 39.8 µM [inhibitor, single point]",–
Cc1cc(Cl)ccc1NS(=O)(=O)c1c(C(=O)N2CCCCCC2)c(C)n(C)c1C,"inconclusive: 39.8 µM [activator, single point]",–
CCOC(=O)c1ccc(N2CCN(c3ccccc3F)CC2)c(NC(=O)Nc2cccc(OC)c2)c1,"inconclusive: 39.8 µM [inhibitor, single point]",–
Cc1ccc(C(=O)OCC(=O)c2c[nH]c3ccccc23)cc1,"inconclusive: 31.6 µM [inhibitor, single point]",–
COc1ccc(NC(=O)c2cc(S(=O)(=O)N3CCCC(C)C3)cn2C)c(OC)c1 (stereo unspecified),–,inactive: 8.93%
CCCc1nn2c(=O)cc(COC(=O)c3cccc(NC(=O)c4ccc(OCC)cc4)c3)nc2s1,–,inactive: 10.6%
